Measured values reported in PubChem BioAssay AID485297 (National Center for Advancing Translational Sciences (NCATS), 2010).
The whole screen tested about 320,000 compounds, of which about 9,100 (2.8%) were called active. The shares of active, inactive and inconclusive entries below differ from those in the screen. The call rests on the fitted dose curve; in most records, active means well fitted activation curve with a large enough effect; inconclusive means small, poorly fitted or top-dose-only effect; inactive means no such curve, though single readings can be large or run the other way. Where the call is inconclusive, the potency comes from a doubtful curve fit.

Experiment: qHTS Assay for Rab9 Promoter Activators; further: nearly all actives have a fitted effect of over 60% in size; on activation, negative = inhibition: % of control where 0% means no effect
Conditions: Huh7 Rab9 promoter-luciferase reporter, luminescence, 24 h; series mostly up to 9.22 µM; activation, negative = inhibition: at the top concentration
How it was run: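 Luminescence read-out: Huh7 cells stably expressing Rab9-luciferase, treated 24 h with compound at 37 °C, then lysed with luciferase reagent for 10 min at ambient before reading.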
Potency means the concentration at half of the fitted maximal effect; tags describe the fitted curve by direction and shape.

Potency, active:
Cc1ccc(F)c(NC(=O)CCc2ccccc2)c1 2.82 µM
Clc1cccc(N=C2NN=C(c3ccc4c(c3)OCCO4)CS2)c1 3.55 µM
O=C(c1ccco1)N1CCN(Cc2c(Cl)cccc2Cl)CC1 3.16 µM
CC1Cc2cc(-c3csc(N)n3)ccc2O1 (centres undefined) 1.26 µM
COc1ccc(CNC(=O)Cn2ncn3cccc3c2=O)cc1 1.58 µM
CCOC(=O)c1c(C)[nH]c(N=Nc2ccc(C)cc2C)c1C 0.251 µM
CCOC(=O)c1cnn(-c2ccccn2)c1N 3.98 µM
O=C(N/N=C/c1cccnc1)c1ccc2c(c1)OCCO2 3.16 µM
O=C(Nc1ccccc1)c1cn2ccccc2n1 0.199 µM
O=C(NCCc1ccc(Cl)cc1)c1ccc2nccnc2c1 3.98 µM
N#C/C(=C/c1ccc(N2CCCCC2)o1)C(=O)Nc1ccc(Cl)cc1 2.24 µM
O=C(c1ccc(-c2ccc([N+](=O)[O-])cc2)o1)N1CCCCC1 1 µM
CCCCOC(=O)Nc1cccc(C(=O)OCC)c1 0.316 µM
O=C(/C=C/Nc1ccc(F)cc1F)c1ccco1 3.55 µM

Potency, inconclusive:
COc1ccc(NC(=O)Nc2ccc3c(c2)OCO3)c(C)c1 1.41 µM [activator, partial curve]
CC(C)COc1ccc(-c2cc(C(=O)NN)[nH]n2)cc1 1.12 µM [activator, partial curve]
Cc1ccn2cc(-c3cccc(NC(=O)c4cccs4)c3)nc2c1 2.82 µM [activator, partial curve]
Cc1ccccc1-c1nc(Cc2ccccc2)no1 5.62 µM [activator, single point]
O=C(O)c1cccc(Cn2c(Cl)c(/C=N/NC(=O)c3cc4ccccc4cc3O)sc2=O)c1 0.891 µM [activator, single point]
COCCn1c(C)cc(C(=O)Cn2nc(C(=O)O)c3ccccc3c2=O)c1C 1.12 µM [activator, full curve]
NC(=O)C1=C[C@H](c2ccc3c(c2)OCO3)C[C@H](OCc2ccc(CO)cc2)O1 2.24 µM [activator, partial curve]
Clc1ccccc1OCc1nc(-c2ccc(Br)o2)no1 5.62 µM [activator, single point]
COC(=O)/C(C#N)=C1/C=Cc2ccccc2N1 2 µM [activator, partial curve]
COc1ccccc1C(=O)Nc1nnc(C)s1 3.55 µM [activator, partial curve]
Cc1ccc(NS(=O)(=O)c2ccc(C(=O)N3CCCCCCC3)cc2)cc1 1.41 µM [activator, partial curve]
CCN(CC)CC(=O)Nc1c(C)cc(C(C)(C)C)cc1C 6.31 µM [activator, single point]
O=C(Nc1cccc2[nH]ncc12)c1ccc(F)cc1 3.55 µM [activator, partial curve]
COc1ccc(-n2c(C)cc(C(=O)Cn3nnc4ccccc4c3=O)c2C)cc1 3.55 µM [activator, partial curve]
COC(=O)c1c(C)[nH]c(C(=O)/C=C/c2ccccc2Cl)c1C 1 µM [activator, full curve]
Cc1nc2ccc(C(=O)Nc3cccc([N+](=O)[O-])c3)cc2s1 3.16 µM [activator, single point]
N#Cc1nc(COc2cccc(Cl)c2)oc1NCc1ccco1 6.31 µM [activator, partial curve, poor fit]
O=C(c1ccc(Br)s1)N1CCc2ccccc2C1 3.16 µM [activator, partial curve]
COc1ccc2ccc(Oc3ncccn3)cc2c1 3.98 µM [activator, partial curve]
CCC(=O)NNC(=O)c1c(O)c2ccccc2[nH]c1=O 5.62 µM [activator, single point]
CCOC(=O)/C(C#N)=C1/C=CN(c2ccc(C)cc2)C=N1 2.24 µM [activator, partial curve]
COCCN1C(=O)/C(=C/c2ccc(N3CCCC3)cc2)SC1=S 3.55 µM [activator, partial curve]
CCC(C)c1ccc2oc(-c3ccc(NC(=O)Cn4cnc5c(=O)n(C)c(=O)n(C)c54)cc3)nc2c1 (centres undefined) 3.98 µM [activator, single point]
COCCn1c(C)cc(C(=O)COC(=O)c2cccc(O)c2)c1C 0.282 µM [activator, partial curve]
O=C(CSc1cccc[n+]1[O-])c1cc2ccccc2o1 3.16 µM [activator, single point]
O=c1oc(Nc2ccccc2Cl)nc2ccccc12 0.447 µM [activator, partial curve]
C/C(=N/NC(=O)c1ccc2c(c1)OCO2)c1ccc(NC(=O)C(F)(F)F)cc1 4.47 µM [activator, single point]
COc1ccc(CCc2nc(C)ccc2O)cc1 3.55 µM [activator, partial curve]
CC1CCN(Cc2nc(-c3ccc(Cl)cc3)no2)CC1 2.82 µM [activator, single point]
CN1CC(=O)N/C1=N/C(=O)Nc1cccc(Cl)c1 18.4 µM [activator, partial curve]
Cn1cc(Cl)c(C(=O)Nc2nc3ccc([N+](=O)[O-])cc3s2)n1 2.51 µM [activator, partial curve]
COc1cccc(-c2cc(C(=O)Nc3ccccc3SC)no2)c1 2.51 µM [activator, partial curve]
Clc1nnc(N/N=C/c2ccccc2)c2ccccc12 2.51 µM [activator, partial curve]
C/C(=N\NC(=O)c1cccc(S(=O)(=O)N2CCCC2)c1)c1cccs1 6.31 µM [activator, single point]
NC(=O)c1c(NC(=O)c2ccncc2)sc2c1CCCC2 4.47 µM [activator, single point]
O=c1c(-c2ccc3c(c2)OCCO3)coc2cc(O)cc(O)c12 3.55 µM [activator, single point]
O=C(Nc1ccc(NC(=O)c2cccs2)cc1)c1ccco1 3.16 µM [activator, partial curve]
CC(C)CC(=O)Nc1ccc2oc(-c3ccncc3)nc2c1 1.78 µM [activator, partial curve]
CCC(=O)Nc1cccc(-c2cn3ccccc3n2)c1 3.16 µM [activator, partial curve]
Cc1nnc(SCC(=O)Nc2nc3c(s2)CC(C)CC3)s1 (centres undefined) 1.12 µM [activator, full curve, poor fit]

activation, negative = inhibition, inactive:
OC1CCN(c2cc(-c3ccccc3)nc3cc(-c4ccc(F)cc4)nn23)CC1 -3.24%
COc1ccc(CN2CCN(C(=O)c3cc(-c4cccnc4)nc4ccc(Cl)cc34)CC2)c(OC)c1OC -3.16%
O=C(CCl)N=c1sccn1Cc1ccccc1Cl -53.7%
CCOc1cc(/C=N/NC(=O)CSc2cccc3cccnc23)ccc1O -4.37%
Cc1ccccc1C1c2[nH]c3ccccc3c2CCN1Cc1cccn1-c1ncccn1 (centres undefined) -1.51%
COc1ccc(NC(=O)CSc2nnc(-c3ccccc3C)n2C)cc1 -2.87%
CN(Cc1cn(-c2ccccc2)nc1-c1cc2ccccc2o1)C(=O)CCC(=O)O 27%
Cc1ccc(-c2[nH]ncc2/C=N/n2c(COc3ccccc3C)nc3ccccc3c2=O)cc1 -4.15%
COc1ccc2c(C(=O)CCl)c[nH]c2c1 -4.42%
O=C(/C=C/c1ccc(F)cc1)NC(Cc1c[nH]c2ccccc12)C(=O)O (centres undefined) -7.87%
CC(OC(=O)c1ccc(Cl)nc1)C(=O)NC1(C#N)CCCCC1 (centres undefined) 10.7%
O=[N+]([O-])c1cc([N+](=O)[O-])c(Oc2cc(Cl)cc(Cl)c2)cc1NN1CCCCC1 -3.76%
COc1ccc(NC(=O)CN(C)C(=O)c2ccc(NS(=O)(=O)c3ccc4[nH]c(=O)[nH]c4c3)cc2)cc1 -5.84%
Cc1nn(-c2ccccc2)c2sc(C(=O)O)cc12 3.42%
CCN1CCN(c2ccc(N3CCN(C(=O)c4ccc(Br)o4)CC3)nn2)CC1 -3.92%
CCCN(C(=O)COC(=O)C12CCC(=O)N1c1ccccc1S2)c1c(N)n(Cc2ccccc2)c(=O)[nH]c1=O (centres undefined) 3.23%
CC(=O)/C=C(\C)Nc1ccccc1O -0.845%
CCOc1ccc(OCC)c(NC(=O)c2nnn(CC(=O)Nc3cc(C)cc(C)c3)c2N)c1 -14.7%
O=C(CCSCc1ccc(Cl)cc1)NC1CCCC1 -6.33%
c1csc(-c2nnc(N3CCCCCC3)c3ccccc23)c1 10.3%
NC(=O)NC(=O)COC(=O)CCCCCNS(=O)(=O)c1ccc2c(c1)OCCO2 -1.82%
Cc1cccc(NC(=O)c2nc[nH]c2C(=O)NC2CCN(C(=O)OC(C)(C)C)CC2)c1 -4.77%
O=C(COC(=O)Cc1c(Cl)cccc1Cl)Nc1ccc2[nH]c(=O)[nH]c2c1 -1.46%
Cc1nn(C2CCS(=O)(=O)C2)c(Cl)c1/C=C/C(=O)OCC(=O)Nc1ccc2c(c1)OCO2 (centres undefined) 0.253%
CC(=O)n1cc(/C=N/NC(=O)c2ccc(Cl)cc2)c2ccccc21 22.9%
